Results are given in words; binding and its absence hold for the method and conditions named. In cells and extracts the contact can be indirect. Some results given as binding are weak or reduced against the parent protein; the word gives no strength. Where a sequence is shown, tags or fusion partners need not be part of it.
Key:
[1] = biological target: T1, FRQ Δ647–690, V5H6-tagged (Neurospora crassa) (UniProt P19970); experiment: co-IP; V5H6-tagged FRQ (wild type or mutant) pulled down with V5 agarose from Neurospora lysate (cultures in the light, 25 °C); 50 mM Hepes pH 7.4, 137 mM NaCl, 10% glycerol, 0.4% NP-40; 4 °C, 2 h; Western blot with FRQ, FRH, WC-1 and WC-2 antibodies
T1 sequence: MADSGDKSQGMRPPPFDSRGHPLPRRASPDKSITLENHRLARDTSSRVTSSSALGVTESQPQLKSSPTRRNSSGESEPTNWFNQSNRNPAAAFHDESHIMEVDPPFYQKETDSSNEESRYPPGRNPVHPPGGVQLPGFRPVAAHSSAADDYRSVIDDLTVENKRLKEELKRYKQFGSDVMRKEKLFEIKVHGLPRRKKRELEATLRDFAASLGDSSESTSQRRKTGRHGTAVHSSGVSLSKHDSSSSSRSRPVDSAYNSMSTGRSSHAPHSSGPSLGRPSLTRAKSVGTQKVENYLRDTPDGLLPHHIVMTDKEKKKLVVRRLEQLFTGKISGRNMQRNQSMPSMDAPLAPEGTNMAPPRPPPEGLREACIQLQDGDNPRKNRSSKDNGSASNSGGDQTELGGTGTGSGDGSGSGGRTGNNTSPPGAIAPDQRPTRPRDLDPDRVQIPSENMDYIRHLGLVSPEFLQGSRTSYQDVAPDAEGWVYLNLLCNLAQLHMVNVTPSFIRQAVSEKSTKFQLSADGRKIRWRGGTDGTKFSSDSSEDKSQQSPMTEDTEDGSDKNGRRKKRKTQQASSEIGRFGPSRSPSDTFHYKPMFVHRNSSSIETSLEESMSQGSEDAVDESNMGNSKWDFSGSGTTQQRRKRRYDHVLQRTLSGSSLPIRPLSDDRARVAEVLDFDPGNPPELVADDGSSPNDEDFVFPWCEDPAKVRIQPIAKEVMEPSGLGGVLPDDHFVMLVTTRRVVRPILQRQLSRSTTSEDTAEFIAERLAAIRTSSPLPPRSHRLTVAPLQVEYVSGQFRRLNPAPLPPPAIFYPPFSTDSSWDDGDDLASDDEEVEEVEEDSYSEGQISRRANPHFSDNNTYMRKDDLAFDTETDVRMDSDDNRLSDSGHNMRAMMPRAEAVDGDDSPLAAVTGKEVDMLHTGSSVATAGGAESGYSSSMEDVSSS

[2] = biological target: T2, FRQ Δ691–732, V5H6-tagged (Neurospora crassa) (UniProt P19970); experiment: as above
T2 sequence: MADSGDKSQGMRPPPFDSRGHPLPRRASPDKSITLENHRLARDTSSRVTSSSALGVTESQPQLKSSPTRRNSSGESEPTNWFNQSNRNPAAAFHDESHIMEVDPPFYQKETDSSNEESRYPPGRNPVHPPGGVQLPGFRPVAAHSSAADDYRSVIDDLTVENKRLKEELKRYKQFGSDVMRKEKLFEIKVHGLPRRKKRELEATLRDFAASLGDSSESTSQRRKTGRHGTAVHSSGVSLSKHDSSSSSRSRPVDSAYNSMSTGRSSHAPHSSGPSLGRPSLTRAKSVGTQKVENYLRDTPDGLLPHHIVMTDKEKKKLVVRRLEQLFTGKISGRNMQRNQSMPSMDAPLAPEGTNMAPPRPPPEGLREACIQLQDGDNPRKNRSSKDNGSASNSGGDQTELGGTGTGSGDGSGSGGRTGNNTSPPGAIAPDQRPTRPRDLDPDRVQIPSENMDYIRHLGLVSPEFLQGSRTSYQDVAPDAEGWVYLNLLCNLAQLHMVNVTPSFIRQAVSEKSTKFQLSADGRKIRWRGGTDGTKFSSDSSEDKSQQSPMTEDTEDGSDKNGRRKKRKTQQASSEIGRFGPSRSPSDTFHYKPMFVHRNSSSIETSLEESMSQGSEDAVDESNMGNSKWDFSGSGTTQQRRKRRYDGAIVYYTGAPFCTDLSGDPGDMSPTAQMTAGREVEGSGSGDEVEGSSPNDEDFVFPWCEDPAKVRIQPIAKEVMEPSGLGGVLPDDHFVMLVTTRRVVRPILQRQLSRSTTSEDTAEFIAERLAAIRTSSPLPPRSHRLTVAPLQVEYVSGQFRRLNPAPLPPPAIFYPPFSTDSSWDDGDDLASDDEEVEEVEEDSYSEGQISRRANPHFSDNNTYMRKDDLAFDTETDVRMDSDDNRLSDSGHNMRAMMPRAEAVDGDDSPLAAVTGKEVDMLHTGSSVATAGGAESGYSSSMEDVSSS

binding [1]: no binding
binding [2]: binds weakly
B1: White Collar-2 (WC-2) (protein, UniProt P78714 1-530)
chain: MSHGQPPPGSSMYGFGAMGMGSGMGSGMGSGMGTGMGTGMGTGMSASQMTSDPQDMMSLLDTSVFPGFDGMSMSLDVGDSMSNPFTPVSVPPPLPAGNAGPSHVGVCGGHGAPDQLFSPDDLIATSMSSAGPMIATPTTTTSGPSGGPSSGGGSTLTEFTKRRNWPAKVVEELQDWEHILDANGRIKHVSPSVEPLTGYKPPEIIDLFLRDLIHPDDVGVFTAELNEAIATGSQLRLFYRFRKKDGNWTIFETVGHAHIAAAKFAPNPQNQSPFCQAVFMMARPYPTKNAGLLDSFLEHKIENERLKRRIAELRREEQEEQEESHRTWRMSQEGRSDVTPSDDTATQMGMTPFYIPMNAQADVMMPPPSQPASSLNIALTRENLEGIAGSRPDSIREKMLRYEGNHADTIEMLTGLKYQEGERSHGITTGNASPTLIKGDAGIAIPLDRDPRTGEKKKKIKVAEEYVCTDCGTLDSPEWRKGPSGPKTLCNACGLRWAKKEKKKNANNNNNGGGIGGHNDIHTPMGDHMG
